# PubChem BioAssay AID504832 (National Center for Advancing Translational Sciences (NCATS), 2011)
# About 18,000 (5.8%) of roughly 310,000 compounds were called active. Inconclusive means that the source gave no clear call. Such entries were picked first, then a sample of the others. The call rests on the fitted dose curve; in most records, active means well fitted inhibition curve with a large enough effect; inconclusive means small, poorly fitted or top-dose-only effect, or another doubt; inactive means no such curve, though single readings can be large or run the other way. No potency is given beside an inconclusive call; the fits are too rough.
# Experiment: Primary qHTS for delayed death inhibitors of the malarial parasite plastid, 48 hour incubation
# Conditions: P. falciparum luciferase growth in erythrocytes; series mostly up to 28.7 µM; activity change, negative = inhibition: at the top concentration
# How it was run: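 Luciferase-expressing parasites in RBCs, 2% Hct / 0.1% parasitemia final; RPMI 1640 + 0.5% Albumax; 37 C, 5% CO2, one generation; luminescence read-out, lower signal = inhibition.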
# On the % scale 0 is the no-effect control and ±100 the full control effect; potency means the concentration at half of the fitted maximal effect; tags describe the fitted curve by direction and shape.
SMILES,Potency,"activity change, negative = inhibition"
COc1ccc(C2CC(c3c(-c4ccccc4)c4cc(Cl)ccc4[nH]c3=O)=NN2S(C)(=O)=O)cc1OC (centres undefined),active: 10.4 µM,–
COc1cc(/C=N\NC(=O)c2ccccc2F)ccc1Oc1ccc([N+](=O)[O-])cn1,–,inactive: -24.2%
COc1ccc(S(=O)(=O)NCC2CCC(C(=O)NCCC(C)C)CC2)cc1 (centres undefined),"inconclusive [inhibitor, partial curve]",–
CC(Oc1ccc(F)cc1)C(=O)Nc1cc(Cl)ccc1-n1cncn1 (centres undefined),active: 2.33 µM,–
COC(=O)C1=C(C)NC(=S)NC1c1ccc(-c2cccc(Cl)c2)o1 (centres undefined),"inconclusive [inhibitor, partial curve, poor fit]",–
CCCCSc1nc(C)nc2c1c(=O)n(C)c(=O)n2C,"inconclusive [inhibitor, single point]",–
COc1ccc(-n2c(N)c(C(=O)NCc3ccco3)c3nc4ccccc4nc32)cc1OC,active: 13.1 µM,–
CNC(=O)c1ccccc1NC(=O)c1cccc(S(=O)(=O)N2CCC(C)CC2)c1,"inconclusive [inhibitor, single point]",–
O=C(CSc1nncs1)Nc1nccs1,–,inactive: 0.36%
C/C(=N/Nc1ccccc1[N+](=O)[O-])c1ccc(C)c([N+](=O)[O-])c1,"inconclusive [inhibitor, partial curve, poor fit]",–
O=C(NCC1CCCO1)c1ccc(Cl)c(S(=O)(=O)N2CCCCC2)c1 (centres undefined),"inconclusive [inhibitor, partial curve]",–
COc1ccc(CNC(=O)C2CC(c3cccc(OC)c3)=NO2)cc1 (centres undefined),–,inactive: -16.7%
C#Cc1ccc([C@@H]2C=C(C(=O)NCc3nc4ccccc4[nH]3)O[C@H](OCC)[C@H]2CCCO)cc1,"inconclusive [inhibitor, single point]",–
CC1(C)CC2CC(C)(CN2c2ncnc3ccccc23)C1 (centres undefined),"inconclusive [inhibitor, single point]",–
CN(Cc1ccccc1O)CC1CCCN(CCc2ccc(Cl)cc2)C1 (centres undefined),active: 10.4 µM,–
O=C(c1ccc(Cn2cnnn2)cc1)N1CCCC(Nc2ccc(F)c(F)c2)C1 (centres undefined),"inconclusive [inhibitor, partial curve, poor fit]",–
Cn1c(C(=O)NCc2cccnc2)cc2sc(Cl)cc21,–,inactive: 13.6%
CCN(CC)c1nc(Nc2ccccc2)nc(Oc2ccc(=O)[nH]n2)n1,"inconclusive [inhibitor, single point]",–
O=C1CC(N2CCN(c3ccc(S(=O)(=O)N4CCCC4)cc3)CC2)C(=O)N1c1ccc(F)cc1 (centres undefined),–,inactive: -9.03%
COc1cccc(/C=N/NC(=O)c2cc(-c3cccn3C)n[nH]2)c1O,"inconclusive [inhibitor, single point]",–
CSc1nc2nc3c(cc2c(=O)n1-c1cccc(C)c1)COC(C)(C)C3,–,inactive: -11.5%
C1CCN(CCCNC2C3CC4CC(C3)CC2C4)C1 (centres undefined),"inconclusive [inhibitor, partial curve, poor fit]",–
CCN(CCCNS(=O)(=O)c1cc(-c2cc(C)no2)ccc1C)Cc1ccccc1,"inconclusive [inhibitor, single point]",–

SMILES,Potency,"activity change, negative = inhibition"
O=C(C1CCC1)N1CCc2cc(S(=O)(=O)N3CCN(c4ccccn4)CC3)ccc21,active: 10.4 µM,–
O=C(Cc1ccc(N2CCNC2=O)cc1)N1CCCC(Nc2cccc(F)c2)C1 (centres undefined),"inconclusive [inhibitor, single point]",–
CCOc1ccc(CC(=O)Nc2sc(Cc3ccccc3)c(C)c2C(N)=O)cc1OCC,"inconclusive [inhibitor, partial curve, poor fit]",–
O=C(Cn1ncc2c3ccccc3n(Cc3ccccc3)c2c1=O)N1CCN(c2ncccn2)CC1,"inconclusive [inhibitor, single point]",–
O=C(N1CCOCC1)N1CCC(n2nnc3ccccc32)CC1,–,inactive: -2.06%
O=C(CSc1nnc(CCc2ccccc2)n1-c1ccc(Cl)cc1)c1ccccc1,–,inactive: -1.87%
COc1cc(CCC(=O)Nc2ccc(Br)c(C(F)(F)F)c2)cc(OC)c1OC,"inconclusive [inhibitor, single point]",–
COc1ccc(-c2cn[nH]c2C)cc1,–,inactive: 62.3%
CC1=NN(C(N)=S)C(=O)C1N=Nc1cccc(Cl)c1C (centres undefined),"inconclusive [inhibitor, single point]",–
Cc1n[nH]c(C)c1N1C(=O)c2cccc3cc(Br)cc(c23)C1=O,–,inactive: 9.44%
C=C(C)C1CC=C(C)/C(=N/NC(=O)COc2cccc3ccccc23)C1 (centres undefined),"inconclusive [inhibitor, single point]",–
O=C(CCc1ccccc1)NNC(=O)Cc1ccccc1,–,inactive: 8.39%
COc1cc(/C=N\NC(=O)c2ccc(-c3ccccc3)cc2)ccc1OCC(N)=O,–,inactive: -7.04%
CSc1nc(-c2ccccc2)nc(N2CCOCC2)c1C(C)=O,–,inactive: 15.7%
Oc1ccc(/C=N/NC(=S)Nc2cccnc2)cc1,–,inactive: 156%
CN(C)CCCn1c(N)c(C#N)c2nc(C#N)c(C#N)nc21,"inconclusive [inhibitor, single point]",–
CC(C)NC(=O)NC(=O)CN1c2cccc3cccc(c23)S1(=O)=O,–,inactive: 8.89%
Cc1ccc(C)c(NC(=O)CCC(=O)N/N=C/c2ccc[nH]2)c1,"inconclusive [inhibitor, full curve, poor fit]",–
CCn1cc(C(=O)NCCCN2CCCC(C)C2)c(=O)c2cc(S(=O)(=O)N(C)C3CCCCC3)ccc21 (centres undefined),"inconclusive [inhibitor, partial curve]",–
Cc1ccc(NC(=O)C2(c3ccccc3)CC2(Cl)Cl)cc1C (centres undefined),"inconclusive [inhibitor, single point]",–
COc1cc(/C=N/N2CCN(c3ccccc3)CC2)cc(OC)c1OC(C)=O,–,inactive: 26%
Cc1cccc(N2CCN(C(=O)CCNS(=O)(=O)c3ccc4c(c3)CCC(=O)N4)CC2)c1C,"inconclusive [inhibitor, single point]",–
CC(Nc1ccc2c(c1)OCCO2)C(=O)Nc1ccc2c(c1)OCO2 (centres undefined),–,inactive: 28.5%

SMILES,Potency,"activity change, negative = inhibition"
CC(C)(C)c1cc(=O)n(-c2ccccc2)[nH]1,"inconclusive [inhibitor, single point]",–
Cc1ccc(/C=C2/SC(=Nc3ccc(F)cc3)NC2=O)s1,"inconclusive [inhibitor, full curve]",–
O=C(O)c1cccc(NC(=O)c2ccc3c(c2)C(=O)N(c2ccccc2)C3=O)c1,–,inactive: -30.8% [at 0.00184 µM]
CCCCOc1ccc(Br)cc1CSC(=N)N,active: 4.65 µM,–
COc1ccc(N(Cc2ccccc2)S(=O)(=O)c2cc(C(=O)O)ccc2Cl)cc1,–,inactive: 26.9%
CC1CCCCN1C(=O)C1CCN(c2nc(-c3ccccc3)nc3c2CCC3)CC1 (centres undefined),active: 7.38 µM,–
COc1ccc(OC)c(/C=C2/Sc3ccccc3C2=O)c1,"inconclusive [inhibitor, single point]",–
CC(=O)c1cccc(NC(=O)CSc2nc(=O)n(CCN3CCOCC3)c3c2CCCC3)c1,"inconclusive [inhibitor, partial curve, poor fit]",–
COc1ccc(Cl)cc1NC(=O)CNc1ccc(F)cc1C,"inconclusive [inhibitor, single point]",–
O=C(Cn1c2[n+](c3ccc(C(F)(F)F)cc31)CCCCC2)Nc1c(F)cccc1F,"inconclusive [inhibitor, partial curve, poor fit]",–
Cn1nc(C(=O)NCc2cccc(F)c2)cc1C(=O)NCc1cccc(F)c1,"inconclusive [inhibitor, single point]",–
COc1cc(-c2cc(C(=O)NN3CCN(C)CC3)c3ccccc3n2)cc(OC)c1OC,"inconclusive [inhibitor, partial curve]",–
Cn1c(=O)c2c(nc(CN3CCN(CCO)CC3)n2CCc2ccccc2)n(C)c1=O,"inconclusive [inhibitor, single point]",–
Cc1cc(NC(=O)NN2CCOCC2)nn1-c1c(Cl)cccc1Cl,–,inactive: 6.68%
CCN(CC)CCN1C(=O)C(=O)/C(=C(/O)c2cccc(OC)c2)C1c1ccccn1 (centres undefined),"inconclusive [inhibitor, partial curve, poor fit]",–
COc1ccccc1OCC(=O)NCCC1=CCCCC1,–,inactive: -12.1%
O=C(C1CCCN(S(=O)(=O)c2cccc3nsnc23)C1)N1CC=C(c2ccccc2)CC1 (centres undefined),"inconclusive [inhibitor, partial curve]",–
N#Cc1cc2c(nc1SCc1ccc(Cl)nc1)CCCCC2,"inconclusive [inhibitor, partial curve]",–
Cc1onc(-c2ccccc2Cl)c1C(=O)Nc1ccc(N2CCOCC2)cc1,"inconclusive [inhibitor, full curve, poor fit]",–
C[C@@]12CCC=C[C@H]1[C@H](c1ccc(F)c(/C=C/c3ccccc3)c1)N(Cc1ccccc1)C2=O,"inconclusive [inhibitor, single point]",–
CSc1nc(NCc2ccco2)c2sc3nc(C(C)C)c4c(c3c2n1)CC(C)(C)OC4,"inconclusive [inhibitor, full curve, poor fit]",–
CCN(CC(=O)Nc1c(F)cccc1F)C(=O)c1ccc(Cl)c(S(=O)(=O)N2CCCC2)c1,"inconclusive [inhibitor, single point]",–
C=CCNc1nc(-c2cccc(OC)c2O)nc2ccccc12,"inconclusive [inhibitor, single point]",–
